{
  "source": "a melting point compilation (Tetko et al.; mined from patent text by program, amines drawn as free bases though some values may be those of a salt)",
  "data": [
    {"units": {"melting point": "°C"}, "values": [
      {"smiles": "CCCn1nc2c(N)nc3ccccc3c2c1CCCCN", "melting point": "137 to 139"},
      {"smiles": "Cn1c(=O)[nH]c(=O)c2c1ncn2Cc1ccccc1", "melting point": 263},
      {"smiles": "CS(=O)(=O)OC1CCN(c2ccccn2)CC1", "melting point": "66 to 68"}
    ]}
  ]
}
